Our source for the binding values is article PMC7884418.

The chains behind the UniProt entries cited, without tags or fusion partners.
UniProt Q16763: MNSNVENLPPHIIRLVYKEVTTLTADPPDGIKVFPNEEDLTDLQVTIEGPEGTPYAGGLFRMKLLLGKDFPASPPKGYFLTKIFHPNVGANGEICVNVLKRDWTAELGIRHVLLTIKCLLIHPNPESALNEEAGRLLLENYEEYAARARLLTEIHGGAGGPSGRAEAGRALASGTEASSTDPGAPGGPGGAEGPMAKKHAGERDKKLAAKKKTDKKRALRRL
UniProt P46527: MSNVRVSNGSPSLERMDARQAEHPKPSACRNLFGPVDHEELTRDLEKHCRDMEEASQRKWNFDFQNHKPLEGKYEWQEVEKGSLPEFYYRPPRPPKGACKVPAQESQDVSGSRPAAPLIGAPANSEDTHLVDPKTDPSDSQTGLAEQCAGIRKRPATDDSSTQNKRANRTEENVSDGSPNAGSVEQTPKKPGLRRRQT
UniProt Q13263: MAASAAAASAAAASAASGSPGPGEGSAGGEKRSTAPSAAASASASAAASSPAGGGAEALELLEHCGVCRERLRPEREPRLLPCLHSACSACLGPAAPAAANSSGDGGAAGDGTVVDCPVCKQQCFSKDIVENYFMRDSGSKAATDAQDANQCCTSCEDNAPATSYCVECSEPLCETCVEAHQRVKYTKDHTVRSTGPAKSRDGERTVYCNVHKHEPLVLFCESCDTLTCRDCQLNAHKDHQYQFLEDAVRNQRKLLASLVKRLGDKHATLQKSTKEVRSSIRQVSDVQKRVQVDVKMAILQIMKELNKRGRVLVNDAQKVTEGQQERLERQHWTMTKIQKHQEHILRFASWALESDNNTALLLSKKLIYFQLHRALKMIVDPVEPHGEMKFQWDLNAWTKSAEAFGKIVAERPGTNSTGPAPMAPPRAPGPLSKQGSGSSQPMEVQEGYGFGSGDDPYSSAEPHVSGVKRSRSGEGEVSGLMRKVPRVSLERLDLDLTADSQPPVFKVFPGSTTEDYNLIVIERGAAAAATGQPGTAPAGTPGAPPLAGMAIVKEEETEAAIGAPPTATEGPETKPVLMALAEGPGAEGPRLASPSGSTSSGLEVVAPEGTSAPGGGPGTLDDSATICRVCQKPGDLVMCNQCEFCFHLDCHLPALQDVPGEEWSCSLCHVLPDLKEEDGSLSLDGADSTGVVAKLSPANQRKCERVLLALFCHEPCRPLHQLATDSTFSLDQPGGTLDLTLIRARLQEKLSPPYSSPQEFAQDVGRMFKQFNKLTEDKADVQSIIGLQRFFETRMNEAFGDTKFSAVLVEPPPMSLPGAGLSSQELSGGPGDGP

These are yes or no findings as the source states them, for the method shown. In cells and extracts the contact can be indirect. Some results given as binding are weak or reduced against the parent protein; the word gives no strength.

Assay [1] concerns the target UBE2S-EGFP (UniProt Q16763). Description: FRET or BRET; HEK293T cells transiently transfected with UBE2S-EGFP and TRIM28-DsRed2 plasmids; read in the nucleus. A general note: Bioluminescence resonance energy transfer reports proximity on the nanometre scale.
For assay [2], the target named is UBE2S-EGFP (UniProt Q16763). Description: FRET or BRET; HEK293T cells transiently transfected with UBE2S-EGFP and TRIM28-DsRed2 plasmids; read in the cytoplasm.
Assay [3] concerns the target UBE2S (human (endogenous in Huh-7 and MHCC-97H)) (UniProt Q16763). Description: co-IP; endogenous proteins, nuclear extract of Huh-7 and MHCC-97H cells.
The target in assay [4] is p27 (human (endogenous in HCC cells)) (UniProt P46527). The assay is described as above.
The target of assay [5] is UBE2S (human (endogenous in Huh-7 and MHCC-97H)) (UniProt Q16763). Description: co-IP; endogenous proteins, HCC cell lines, co-immunoprecipitation and western blot.
Assay [6] has as its target p27 (human (endogenous in HCC cells)) (UniProt P46527). The description is as above.
The next assay concerns the target exogenous UBE2S (UniProt Q16763). The assay can be described thus: co-IP; exogenous (transfected) proteins, co-immunoprecipitation and western blot.

Regarding “TRIM28-DsRed2 (from UniProt Q13263 1-835)”, the binding entry in the assay with UBE2S-EGFP [1] is “binds”; in the assay with UBE2S-EGFP [2], “no binding (condition: in the cytoplasm)”.
Take “Tripartite motif-containing 28 (TRIM28) (from UniProt Q13263 1-835)”: the binding result in assay [3], in assay [4], in assay [5] and in assay [6] was “binds” in each case.
As to “UBE2S (from UniProt Q16763 1-222) (enzyme)”, the binding entry in assay [4] and in assay [6] was “binds” throughout.
Consider “exogenous TRIM28 (from UniProt Q13263 1-835)”, for which the binding result in the assay with exogenous UBE2S was “binds”.
